Laboratory results taken from ChEMBL document CHEMBL4888484, “Replenishing the malaria drug discovery pipeline: Screening and hit evaluation of the MMV Hit Generation Library 1 (HGL1) against asexual blood stage Plasmodium falciparum ,using a nano luciferase reporter read-out” (2022).
Out of some 150,000 compounds screened, about 540 (0.36%) showed an effect of 50% or more. The list shows a part of the results.

Each molecule was assayed on Plasmodium falciparum (assay: Primary screen in NF54 nanoGlo assay, in single point, at 2uM, 72h; a lower Z score goes with more inhibition). Settings: timepoint 72 hour.
Assay type: functional, Erythrocyte
O=S1(=O)CCC(NC[C@@H]2CCC[C@H]2O)c2cc(Br)ccc21 (stereo not given in full) was tested, and the “% Inhibition” value was -4% and the Z score was 0.71.
With Cc1nnccc1C(=O)N1CCC[C@H]1c1ncc(Br)cn1 the “% Inhibition” value was -5% and the Z score was 0.79.
In the case of Cc1ccc(CNC(=O)[C@@H]2CCCN2S(C)(=O)=O)c2cccnc12, the “% Inhibition” value is reported as -6% and the Z score is reported as 0.7.
For CC(C)N(Cc1ccccc1Cl)C(=O)[C@H]1CCN(C)C1, the “% Inhibition” value was 2% and the Z score was -0.26.
In the case of CO[C@H]1C[C@H]2CN(C(=O)COc3cccc(C)c3)[C@@H](Cc3ccccc3)C(=O)N2C1, the “% Inhibition” value is reported as -5% and the Z score is reported as 0.76.
With CCc1ccc(S(=O)(=O)N[C@H]2CNC[C@@H]2OC)s1 the “% Inhibition” value was -4% and the Z score was 0.76.
For C[C@H](NC(=O)C1(O)CCCC1)c1noc(-c2ccccc2)n1, the “% Inhibition” value was 8% and the Z score was -0.76.
With N#Cc1cccc(CN2CCN([C@H]3CCOC4(CCOCC4)C3)CC2)c1 the “% Inhibition” value was -7% and the Z score was 0.94.
O=C(Cc1ccc(F)c(Br)c1)NC[C@H]1CCCNC1 was tested, and the “% Inhibition” value was -7% and the Z score was 1.1.
C[C@](C#N)(NC(=O)CN1CCCCCC1)C1CC1 was tested, and the “% Inhibition” value was 7% and the Z score was -0.67.
In the case of Cc1cc(C(=O)N2C[C@H]3CC[C@@H](C2)N(C)C3)c(C)n1C, the “% Inhibition” value is reported as 1% and the Z score is reported as -0.25.
O=C(NCc1ccc2c(c1)CCN2C(=O)c1ccccc1)Nc1ccccc1C(F)(F)F was tested, and the “% Inhibition” value was -8% and the Z score was 1.49.
With CCOC(=O)c1ccc(NC(=O)[C@H]2C[C@@H]3CCCN3[C@]23C(=O)Nc2ccc(F)cc23)cc1 the “% Inhibition” value was 1% and the Z score was -0.16.
With CC(C)c1cc(N(C)Cc2nnc(-c3ccco3)o2)n[nH]1 the “% Inhibition” value was -8% and the Z score was 1.46.
CCc1ncc(CN(C)C(=O)c2ccc(O)c(Cl)c2)s1 was tested, and the “% Inhibition” value was -7% and the Z score was 0.8.
With CC(C)(C)NC(=O)c1ccnc(OCC2CCOCC2)c1 the “% Inhibition” value was -13% and the Z score was 2.55.
With COc1cccc2nc(C[C@H]3CN(Cc4ccccc4OC(F)(F)F)CC[C@H]3CC(=O)O)[nH]c12 the “% Inhibition” value was 31% and the Z score was -3.46.
For CC(C)n1ccc(CN2C(=O)[C@@H]3CCCCN3C2=O)n1, the “% Inhibition” value was 1% and the Z score was -0.08.
CCC1(CC)CN(C(=O)c2ccnc(C3CCCC3)n2)C1 was tested, and the “% Inhibition” value was -9% and the Z score was 1.1.
O=S1(=O)[C@H](c2ccccc2)CCN1Cc1ncnn1CCF was tested, and the “% Inhibition” value was -9% and the Z score was 1.1.
With Cc1ncsc1CCN(C)CCn1cc[nH]c1=O the “% Inhibition” value was -15% and the Z score was 3.22.
CCC(C(=O)N1CCN(CC(OCc2ccc(C#N)cc2)c2cccc(N3CCCC3)c2)CC1)c1ccccc1 (stereo not given) was tested, and the “% Inhibition” value was -14% and the Z score was 1.88.
In the case of O=C(Nc1cccs1)N1CCC(Oc2ccccn2)CC1, the “% Inhibition” value is reported as -11% and the Z score is reported as 2.03.
For CN(CCN(C(=O)c1ccc2ccncc2n1)C1CC1)C1CC1, the “% Inhibition” value was 0% and the Z score was 0.
For C[C@@H](C(=O)N1CCC2(CC1)Cc1cccc(c1)Oc1cccc(c1)CCNC2=O)n1cnnn1, the “% Inhibition” value was -14% and the Z score was 1.74.
O=C1CN(C(=O)c2nccc3cccnc23)C2(CN1)COC2 was tested, and the “% Inhibition” value was 0% and the Z score was 0.02.
For COC(=O)NC[C@H](O)c1csc2ccccc12, the “% Inhibition” value was -3% and the Z score was 0.41.
In the case of O=C1NCCN2CCN(Cc3c[nH]nc3C3CCCCC3)C[C@@H]12, the “% Inhibition” value is reported as 8% and the Z score is reported as -1.03.
With Cc1ccc(S(=O)(=O)C[n+]2sc(N(c3ccccc3)c3ccccc3)nc2-c2ccccc2)cc1 the “% Inhibition” value was 0% and the Z score was 0.04.
For CCN(C)CC(O)CN[C@H](C)c1ccccc1Cl (stereo not given in full), the “% Inhibition” value was -5% and the Z score was 0.82.
With CCC(=O)N(CC(=O)Nc1nc(-c2ccccc2)cn1-c1ccc(OC)c(OC)c1)C1CC1 the “% Inhibition” value was -7% and the Z score was 0.83.
With C[C@H]1CNC(=O)CCN1C(=O)Nc1ccc(CCc2ccccn2)cc1 the “% Inhibition” value was -7% and the Z score was 1.34.
C[C@]1(C(=O)NCCCNc2ncccn2)CC1(Cl)Cl was tested, and the “% Inhibition” value was -1% and the Z score was 0.16.
For CC(C)CC(=O)Nc1ccc(N2CCCN(C(=O)CC(C)C)CC2)c(C(=O)NCc2ccc(F)cc2)c1, the “% Inhibition” value was -12% and the Z score was 2.1.
For CN(CCCNC(=O)[C@@H]1Cc2ccccc2CN1C)c1ccccc1, the “% Inhibition” value was -13% and the Z score was 2.4.
For CCN(C)Cc1ccc(F)cc1C(=O)OC, the “% Inhibition” value was -7% and the Z score was 0.88.
With O=C(Nc1cc(Cl)cc(Cl)c1)C1[C@@H]2C=C[C@]3(O2)C(C(=O)NC2CCCCC2)N(CCN2CCCCCC2)C(=O)[C@H]13 (stereo not given in full) the “% Inhibition” value was 21% and the Z score was -3.26.
With Cc1cc(C2CCC(C(=O)NCc3cccc(F)c3)CN2C(=O)C2CCCC2)ccc1F (stereo not given) the “% Inhibition” value was 0% and the Z score was 0.
For CC(C)NC(=O)N(Cc1ccc(F)cc1)c1cccc(CC(=O)NCc2ccc3c(c2)OCO3)c1, the “% Inhibition” value was 2% and the Z score was -0.2.
Nc1nc2nc(-c3ccccc3)oc2c(=O)[nH]1 was tested, and the “% Inhibition” value was -8% and the Z score was 0.94.
CC(=O)N1CC(OCC(=O)Nc2cc(F)ccc2NC(=O)c2ccccn2)C1 was tested, and the “% Inhibition” value was -21% and the Z score was 3.65.
For O=S(=O)(Nc1cncnc1-c1ccccc1)c1cncc(Cl)c1, the “% Inhibition” value was 1% and the Z score was -0.13.
With CN(CC(=O)Nc1cccc(F)c1)C(=O)c1cc(S(=O)(=O)N(C)C)ccc1N1CCCCC1 the “% Inhibition” value was -4% and the Z score was 0.39.
Cc1noc(C)c1CN(C)CC=Cc1ccncc1 was tested, and the “% Inhibition” value was -14% and the Z score was 1.72.
In the case of Nc1ccncc1-c1ccccc1OCc1cccc(F)c1, the “% Inhibition” value is reported as -5% and the Z score is reported as 0.63.
O=C(NCCOc1ccccc1)N(Cc1ccsc1)CC(F)(F)F was tested, and the “% Inhibition” value was -12% and the Z score was 1.31.
CCN(CC)c1ccc(C(=O)OCC(=O)N2CCCC2)cc1 was tested, and the “% Inhibition” value was -7% and the Z score was 0.99.
Cc1nc(C)c(COc2ccncc2)o1 was tested, and the “% Inhibition” value was -11% and the Z score was 1.17.
With c1ncc(CNc2ccc3scnc3c2)s1 the “% Inhibition” value was -11% and the Z score was 1.14.
In the case of COC(c1ccccc1Cl)C(C)NC(=O)Cc1ccc(C)nc1 (stereo not given), the “% Inhibition” value is reported as -12% and the Z score is reported as 1.47.
In the case of CC(=O)c1cccc(-c2ccc3c(cnn3CC(=O)Nc3ccnn3C)c2)c1, the “% Inhibition” value is reported as -12% and the Z score is reported as 1.94.
In the case of COc1cccc(-c2cn3c(-c4ccccc4)c(-c4ccccc4)nc3n2CCc2ccccc2)c1, the “% Inhibition” value is reported as 2% and the Z score is reported as -0.19.
With Cc1noc(C)c1C(=O)OCC1CCC1 the “% Inhibition” value was -15% and the Z score was 2.34.
With Cc1cc(C2CCC2)nc(N2CCCNCC2)n1 the “% Inhibition” value was 1% and the Z score was -0.25.
For O=C(C1CCS(=O)(=O)C1)N(CC(O)c1ccc(F)cc1)C1CC1 (stereo not given), the “% Inhibition” value was -1% and the Z score was 0.08.
Nc1cc(Br)ccc1OC[C@H]1CCOC1 was tested, and the “% Inhibition” value was -15% and the Z score was 1.75.
In the case of O=C(Cc1ccccc1)N(c1ccccc1)c1ccc(N(C(=O)Cc2ccccc2)c2ccccc2)cc1, the “% Inhibition” value is reported as -4% and the Z score is reported as 0.62.
For CN1CCCN(C(=O)c2scnc2C(C)(C)C)c2cc(F)ccc21, the “% Inhibition” value was -7% and the Z score was 1.01.
O=C1c2ccccc2N[C@H](c2cccs2)N1Cc1ccc2c(c1)OCO2 was tested, and the “% Inhibition” value was -5% and the Z score was 0.62.
In the case of CN1CCOC(C(NC(=O)c2n[nH]c3c2CCC3)c2ccc(Cl)cc2)C1 (stereo not given), the “% Inhibition” value is reported as 1% and the Z score is reported as -0.14.
With c1ccc2c(c1)nc1n2CCN(C2CCCCC2)C1 the “% Inhibition” value was -1% and the Z score was 0.12.
For Cc1cc(COc2ccc(C(=O)N3CCNC[C@@H]3C)cc2Br)on1, the “% Inhibition” value was 11% and the Z score was -1.36.
In the case of O=C(Nc1ccc(F)cc1)c1cc(CN2CCCC2)on1, the “% Inhibition” value is reported as -24% and the Z score is reported as 2.42.
In the case of O=C(c1cc(-n2cccn2)ccc1Cl)N1C[C@H](O)[C@@H](F)C1, the “% Inhibition” value is reported as 1% and the Z score is reported as -0.12.
O=C(C1CCCO1)N1CCC(OCCCc2ccccc2)C1 (stereo not given) was tested, and the “% Inhibition” value was -3% and the Z score was 0.3.
In the case of Cc1ccc2c(c1)CC[C@@H](C(=O)NCc1cc(C)nc(C)n1)O2, the “% Inhibition” value is reported as -15% and the Z score is reported as 2.08.
With CC1CN(S(=O)(=O)c2cccnc2)CC(c2ccc(F)cc2)O1 (stereo not given) the “% Inhibition” value was -4% and the Z score was 0.55.
With O=C(Cc1ccccc1Cl)N1CC[C@H](CN2CCOC2=O)C1 the “% Inhibition” value was -6% and the Z score was 0.78.
CCc1sc(C(=O)Nc2cccc(N3CCOC3=O)c2C)cc1C was tested, and the “% Inhibition” value was -8% and the Z score was 1.02.
COCC(=O)Nc1ccc(-c2noc([C@@H]3CCCN3CC(C)(C)C)n2)cn1 was tested, and the “% Inhibition” value was -10% and the Z score was 1.57.
COC1(C(F)(F)F)CN(C(=O)Nc2ccnc(C)n2)C1 was tested, and the “% Inhibition” value was -4% and the Z score was 0.74.
CCCc1nc(C(=O)N[C@H]2C[C@H](c3nnc(CO)n3C3CC3)C2)cs1 was tested, and the “% Inhibition” value was -21% and the Z score was 1.91.
For NC(CC(=O)Nc1cccc(C(F)(F)F)c1)=NO, the “% Inhibition” value was 8% and the Z score was -1.05.
O=C(CC1CCCCC1)Nc1cnn([C@H]2CCOC2)c1 was tested, and the “% Inhibition” value was 13% and the Z score was -1.67.
In the case of COc1cccc(F)c1[C@H](C)Nc1nc(N)c2cnn(C)c2n1, the “% Inhibition” value is reported as 0% and the Z score is reported as -0.07.
CCO[C@H]1COC[C@@H]1NC(=O)Nc1cccc(Cl)c1 was tested, and the “% Inhibition” value was 5% and the Z score was -0.53.
For CC(C)(C)OC(=O)NCC=CCNc1ncc(Cl)cn1, the “% Inhibition” value was -14% and the Z score was 1.38.
For CN1CCC[C@H](N2CCn3c(Cc4ccccc4)nnc3C2)C1=O, the “% Inhibition” value was -4% and the Z score was 0.67.
In the case of O=C(NC1CCC(C(=O)N2CCCCCC2)CC1)C1CCCC1 (stereo not given), the “% Inhibition” value is reported as 6% and the Z score is reported as -1.26.
[O-][N+]1=N[C@@H]2CCCC[C@@H]2N1OCc1ccccc1 was tested, and the “% Inhibition” value was -4% and the Z score was 0.52.
For Cc1[nH]c(C)c(S(=O)(=O)N2CCC(C(=O)N3CCN(C4CCCCC4)CC3)CC2)c1C(=O)N1CCCCC1, the “% Inhibition” value was 1% and the Z score was -0.1.
With CCOC(=O)C(=O)Nc1nnc(C(CC)CC)s1 the “% Inhibition” value was -5% and the Z score was 0.92.
In the case of O=C1[C@@H](n2ncnc2-c2ccccc2Cl)CCN1CC(F)(F)F, the “% Inhibition” value is reported as -2% and the Z score is reported as 0.32.
CC[C@H](O)Cn1nc(CC2CC2)nc1-c1cc(C)oc1C was tested, and the “% Inhibition” value was -9% and the Z score was 1.21.
With COc1ccccc1N1C[C@]23C=C[C@H](O2)C(C(=O)Nc2ccc(OC(F)(F)F)cc2)C3C1=O (stereo not given in full) the “% Inhibition” value was -22% and the Z score was 3.39.
